The values below come from PMC9911399, “Two distinct binding modes provide the RNA-binding protein RbFox with extraordinary sequence specificity”.

Where a chain is given by its changes, count along the chain named. The list shows a part of the results.

To fix the notation:
B1: CCUUAAC (DNA:RNA)
RNA: GGGAGACCGGAAUUCAGAUUGUCCCCUUAACUUAAAUCCCGUCGUAGCCACCA
DNA 1: CAATCTGAATTCCGGTCTCCC
DNA 2: TGGTGGCTACGACGGGATT
B2: UCAUCCU (DNA:RNA)
RNA: B1 RNA with C25U, U27A, A29C, A30C, C31U
DNA 1: CAATCTGAATTCCGGTCTCCC
DNA 2: TGGTGGCTACGACGGGATT
B3: GGCUCAC (DNA:RNA)
RNA: B1 RNA with C25G, C26G, U27C, A29C
DNA 1: CAATCTGAATTCCGGTCTCCC
DNA 2: TGGTGGCTACGACGGGATT
B4: UUAACCC (DNA:RNA)
RNA: B1 RNA with C25U, C26U, U27A, U28A, A29C, A30C
DNA 1: CAATCTGAATTCCGGTCTCCC
DNA 2: TGGTGGCTACGACGGGATT
B5: GCCAACG (DNA:RNA)
RNA: B1 RNA with C25G, U27C, U28A, A30C, C31G
DNA 1: CAATCTGAATTCCGGTCTCCC
DNA 2: TGGTGGCTACGACGGGATT
B6: AGUUUGA (DNA:RNA)
RNA: B1 RNA with C25A, C26G, A29U, A30G, C31A
DNA 1: CAATCTGAATTCCGGTCTCCC
DNA 2: TGGTGGCTACGACGGGATT
B7: AUUUAGU (DNA:RNA)
RNA: B1 RNA with C25A, C26U, A30G, C31U
DNA 1: CAATCTGAATTCCGGTCTCCC
DNA 2: TGGTGGCTACGACGGGATT
B8: CCGUCUG (DNA:RNA)
RNA: B1 RNA with U27G, A29C, A30U, C31G
DNA 1: CAATCTGAATTCCGGTCTCCC
DNA 2: TGGTGGCTACGACGGGATT
B9: CUUGUCA (DNA:RNA)
RNA: B1 RNA with C26U, U28G, A29U, A30C, C31A
DNA 1: CAATCTGAATTCCGGTCTCCC
DNA 2: TGGTGGCTACGACGGGATT
B10: CCGGCAC (DNA:RNA)
RNA: B1 RNA with U27G, U28G, A29C
DNA 1: CAATCTGAATTCCGGTCTCCC
DNA 2: TGGTGGCTACGACGGGATT
B11: AUUGAAG (DNA:RNA)
RNA: B1 RNA with C25A, C26U, U28G, C31G
DNA 1: CAATCTGAATTCCGGTCTCCC
DNA 2: TGGTGGCTACGACGGGATT
B12: CGAAGGA (DNA:RNA)
RNA: B1 RNA with C26G, U27A, U28A, A29G, A30G, C31A
DNA 1: CAATCTGAATTCCGGTCTCCC
DNA 2: TGGTGGCTACGACGGGATT
B13: AACUGGA (DNA:RNA)
RNA: B1 RNA with C25A, C26A, U27C, A29G, A30G, C31A
DNA 1: CAATCTGAATTCCGGTCTCCC
DNA 2: TGGTGGCTACGACGGGATT
B14: AACAAUU (DNA:RNA)
RNA: B1 RNA with C25A, C26A, U27C, U28A, A30U, C31U
DNA 1: CAATCTGAATTCCGGTCTCCC
DNA 2: TGGTGGCTACGACGGGATT
B15: GUACCCG (DNA:RNA)
RNA: GGGAGACCGGAAUUCAGAUUGUCCGUACCCGUUAAAUCCCGUCGUAGCCACCA
DNA 1: CAATCTGAATTCCGGTCTCCC
DNA 2: TGGTGGCTACGACGGGATT
B16: UAAUGGC (DNA:RNA)
RNA: B1 RNA with C25U, C26A, U27A, A29G, A30G
DNA 1: CAATCTGAATTCCGGTCTCCC
DNA 2: TGGTGGCTACGACGGGATT
B17: AAACUGA (DNA:RNA)
RNA: B15 RNA with G25A, U26A, C29U, C30G, G31A
DNA 1: CAATCTGAATTCCGGTCTCCC
DNA 2: TGGTGGCTACGACGGGATT
B18: UUAUGAG (DNA:RNA)
RNA: B15 RNA with G25U, C28U, C29G, C30A
DNA 1: CAATCTGAATTCCGGTCTCCC
DNA 2: TGGTGGCTACGACGGGATT
B19: AGCCUAC (DNA:RNA)
RNA: B1 RNA with C25A, C26G, U27C, U28C, A29U
DNA 1: CAATCTGAATTCCGGTCTCCC
DNA 2: TGGTGGCTACGACGGGATT
B20: AACCAUA (DNA:RNA)
RNA: B1 RNA with C25A, C26A, U27C, U28C, A30U, C31A
DNA 1: CAATCTGAATTCCGGTCTCCC
DNA 2: TGGTGGCTACGACGGGATT
B21: GUCACGG (DNA:RNA)
RNA: B15 RNA with A27C, C28A, C30G
DNA 1: CAATCTGAATTCCGGTCTCCC
DNA 2: TGGTGGCTACGACGGGATT
B22: GAAGUGU (DNA:RNA)
RNA: B15 RNA with U26A, C28G, C29U, C30G, G31U
DNA 1: CAATCTGAATTCCGGTCTCCC
DNA 2: TGGTGGCTACGACGGGATT
B23: UUGUCAG (DNA:RNA)
RNA: B15 RNA with G25U, A27G, C28U, C30A
DNA 1: CAATCTGAATTCCGGTCTCCC
DNA 2: TGGTGGCTACGACGGGATT
B24: GAACCUA (DNA:RNA)
RNA: B15 RNA with U26A, C30U, G31A
DNA 1: CAATCTGAATTCCGGTCTCCC
DNA 2: TGGTGGCTACGACGGGATT
B25: UUCACUA (DNA:RNA)
RNA: B15 RNA with G25U, A27C, C28A, C30U, G31A
DNA 1: CAATCTGAATTCCGGTCTCCC
DNA 2: TGGTGGCTACGACGGGATT
B26: GGCCUCU (DNA:RNA)
RNA: B15 RNA with U26G, A27C, C29U, G31U
DNA 1: CAATCTGAATTCCGGTCTCCC
DNA 2: TGGTGGCTACGACGGGATT
B27: CAGAGUC (DNA:RNA)
RNA: B1 RNA with C26A, U27G, U28A, A29G, A30U
DNA 1: CAATCTGAATTCCGGTCTCCC
DNA 2: TGGTGGCTACGACGGGATT
B28: CUCGUCU (DNA:RNA)
RNA: B15 RNA with G25C, A27C, C28G, C29U, G31U
DNA 1: CAATCTGAATTCCGGTCTCCC
DNA 2: TGGTGGCTACGACGGGATT
B29: GACUUGC (DNA:RNA)
RNA: B1 RNA with C25G, C26A, U27C, A29U, A30G
DNA 1: CAATCTGAATTCCGGTCTCCC
DNA 2: TGGTGGCTACGACGGGATT
B30: GCGCGCA (DNA:RNA)
RNA: B15 RNA with U26C, A27G, C29G, G31A
DNA 1: CAATCTGAATTCCGGTCTCCC
DNA 2: TGGTGGCTACGACGGGATT
B31: GCUACCA (DNA:RNA)
RNA: B15 RNA with U26C, A27U, C28A, G31A
DNA 1: CAATCTGAATTCCGGTCTCCC
DNA 2: TGGTGGCTACGACGGGATT

This test has as its target T1, RBFOX1 RRM RbFoxmut (Fox-RRM*) (Homo sapiens, UniProt Q9NWB1 109-208, R118D;E147R;N151S;E152T).
T1 sequence: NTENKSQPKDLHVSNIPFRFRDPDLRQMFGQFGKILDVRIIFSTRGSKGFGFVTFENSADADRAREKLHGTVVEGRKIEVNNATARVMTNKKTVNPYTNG
As to the kind of experiment: EMSA; HiTS-Eq, 1 nM pool, 10 min; buffer printed only for the single-RNA assays: 10 mM Tris pH 7.5, 150 mM NaCl, 3.4 mM EDTA, 0.001% NP-40, 30 C. The settings on record: tags: His6 N-terminal (pET28a); label: 5' 32P. The gist of the method:
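Relative association constants, normalised to the cognate motif, were derived by comparing read counts of each RNA species with those of the control reaction. The RNA sequenced was the free fraction, separated by 8% native PAGE after a 10 min equilibration in 50 µL of 1 nM 5′-radiolabelled RNA (7 randomized nucleotides) with increasing concentrations of purified wild-type or mutant RbFox RRM.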
On the technique in general: A gel shift assay detects complexes by their altered migration in electrophoresis.
Regarding B1, the binding signal was 0.0615 KA relative to UGCAUGU.

Take B2: the binding signal is 0.0791 KA relative to UGCAUGU.

B3: the binding signal was 0.104 KA relative to UGCAUGU.

As to B4, the binding signal was 0.0583 KA relative to UGCAUGU.

B5: the binding signal was 0.0923 KA relative to UGCAUGU.

Regarding B6, the binding signal is 0.169 KA relative to UGCAUGU.

Regarding B7, the binding signal is 0.131 KA relative to UGCAUGU.

For B8, the binding signal is 0.122 KA relative to UGCAUGU.

As to B9, the binding signal is 0.132 KA relative to UGCAUGU.

Take B10: the binding signal was 0.0571 KA relative to UGCAUGU.

For the molecule B11, the binding signal was 0.141 KA relative to UGCAUGU.

On to B12, for which the binding signal is 0.0736 KA relative to UGCAUGU.

Turning to B13, the binding signal was 0.0617 KA relative to UGCAUGU.

For the molecule B14, the binding signal is 0.0602 KA relative to UGCAUGU.

As to B15, the binding signal was 0.0877 KA relative to UGCAUGU.

With B16, the binding signal was 0.102 KA relative to UGCAUGU.

Consider B17, for which the binding signal is 0.0428 KA relative to UGCAUGU.

For B18, the binding signal was 0.12 KA relative to UGCAUGU.

As for B19, the binding signal is 0.0767 KA relative to UGCAUGU.

Regarding B20, the binding signal is 0.0829 KA relative to UGCAUGU.

Consider B21, for which the binding signal is 0.0964 KA relative to UGCAUGU.

On to B22, for which the binding signal was 0.125 KA relative to UGCAUGU.

Consider B23, for which the binding signal was 0.132 KA relative to UGCAUGU.

As to B24, the binding signal is 0.0903 KA relative to UGCAUGU.

B25: the binding signal was 0.147 KA relative to UGCAUGU.

With B26, the binding signal was 0.0835 KA relative to UGCAUGU.

Consider B27, for which the binding signal is 0.111 KA relative to UGCAUGU.

As to B28, the binding signal was 0.0745 KA relative to UGCAUGU.

For the molecule B29, the binding signal was 0.133 KA relative to UGCAUGU.

B30: the binding signal was 0.13 KA relative to UGCAUGU.

Turning to B31, the binding signal is 0.0847 KA relative to UGCAUGU.
